# Results: PubChem BioAssay AID445 (National Center for Advancing Translational Sciences (NCATS), 2006)
# Screen size: about 110,000 compounds; about 40 (0.04%) were called active. The shares of active, inactive and inconclusive entries below differ from those in the screen. Calls follow the shape of the dose curve; as a rule, active = well fitted curve in the direction sought with a large enough effect in the signal ratio (not every such curve was filed as active); inconclusive = small, poorly fitted or top-dose-only effect, or a change in a side signal; inactive = flat fitted curve, though single readings scatter; the % refers to the signal ratio. Potencies beside an inconclusive call are fits to weak or partial responses and may not hold up.
# Experiment: IkB Signaling;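 as to IkBa stabilization activation: 0% = basal untreated cells and 100% = reference inhibitor full response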
# Details: ABC-DLBCL IkBa-CBG/CBR dual luciferase ratio (green luciferase fused to IkBa over red control in OCI-Ly3 lymphoma cells), 4 h; IkBa stabilization activation: at 57.1 µM (top of the series), scaled: untreated 0%, proteasome inhibitor 100% unless noted
# How it was run: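 Curves were fitted separately to fusion (green), unfused (red) and ratio luminescence, then classed by r2, magnitude and activity. Cells: OCI-Ly3, 4 h compound plus doxycycline at 37C; 10 uM MG-132 defined full response.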
# Potency is read from the fitted curve at half-maximal effect.
Compound,IkBa stabilization activation,Potency
CC(C)(C)c1ccc(S(=O)(=O)NCc2ccc3c(c2)CCN3C(=O)c2ccccc2)cc1,inactive: -1.36%,
O=C(Cn1c(=O)ccc2cc(S(=O)(=O)N3CCCC3)ccc21)NCc1ccc(Cl)cc1,inconclusive: 1.25% [signal inhibitor],
COc1cc(-c2noc(-c3ccc(N4CCN(C)CC4)c([N+](=O)[O-])c3)n2)cc(OC)c1OC,inactive: 0.765%,
Cn1nnnc1Sc1nc(-c2cccnc2)nc2ccccc12,inconclusive: 11.4% [signal inhibitor],
CCN(CC)S(=O)(=O)c1ccc2nc(NC(=O)c3cccnc3)sc2c1,inconclusive: 0.233% [signal inhibitor],
O=C(NCCO)c1ccc2[nH]c3c(c2c1)CCCC3,inactive: -0.191%,
NCOC(=O)Cc1ccc(Br)cc1,"inactive: -0.701% [at 11.4 µM, scaled: untreated 0%, proteasome inhibitor 100%]",
Cc1ccc(NC(=O)CSc2nnc(COc3ccc(C#N)cc3)n2-c2ccccc2)cc1C,inconclusive: 1.91% [signal inhibitor],
CCC(CO)NC(=O)C(=O)Nc1c2c(nn1-c1ccc(F)cc1)CSC2 (stereo unspecified),inconclusive: 0.161% [signal activator],
O=C(CSc1ncnc2c1oc1ccccc12)Nc1ccc2c(c1)OCCO2,inactive: -1.34%,
COc1cccc(-c2nc(NCc3cccnc3)c3ccccc3n2)c1,"inactive: -1.09% [at 11.4 µM, scaled: untreated 0%, proteasome inhibitor 100%]",
CC(=O)Nc1cccc(NC(=O)CN2C(=O)CCSc3ccccc32)c1,inconclusive: 0.94% [signal inhibitor],
Cc1cccc2sc(NC(=O)CN(C)S(=O)(=O)c3cccs3)nc12,inconclusive: 2.94% [signal inhibitor],
Cc1nc2ccc(NC(=O)Cc3cccs3)cc2s1,inactive: 2.65%,
COc1ccc(OC)c(C(c2nnnn2C2CCCC2)N2CCc3ccccc3C2)c1 (stereo unspecified),inconclusive: 2.79% [signal inhibitor],
Cc1nc2nc(NC(=O)c3ccccc3F)[nH]n2c(=O)c1Cl,,"inconclusive: 31.6 µM [signal inhibitor, single point]"
Cc1cccc(N2CCN(C(=O)c3cccn4c(=O)c5cc(Cl)ccc5nc34)CC2C)c1 (stereo unspecified),inactive: 3.61%,
O=C(CSc1nnc(-c2cccc(Cl)c2)o1)N1CCc2ccccc21,inactive: 5.26%,
COc1ccc(C2C=C(c3cccc(OC)c3)Nc3c(C(=O)Nc4ccccc4)cnn32)cc1 (stereo unspecified),inconclusive: 3.45% [signal inhibitor],
CCn1c2c(c(=O)n3ncc(C(=O)Nc4cc(Cl)ccc4C)c13)CN(Cc1ccc(OC)cc1)CC2,inconclusive: 1.17% [signal inhibitor],
CCNc1ncc2nc(-c3cccs3)c(=O)n(C[C@H]3CCCO3)c2n1,"inactive: -8.75% [at 11.4 µM, scaled: untreated 0%, proteasome inhibitor 100%]",
CCOc1ccc2oc(=O)cc(CN3CCN(c4cc(C)ccc4C)CC3)c2c1,inconclusive: 0.342% [signal inhibitor],

Compound,IkBa stabilization activation,Potency
Cc1cccc(N2CCN(C(=O)C3CCN(S(=O)(=O)c4cccc5cccnc45)CC3)CC2C)c1 (stereo unspecified),inconclusive: 9.61% [signal inhibitor],
Cc1c(NC(=O)CSc2nncc3ccccc23)c(=O)n(-c2ccccc2)n1C,inconclusive: 8.12% [signal inhibitor],
CCNc1nc(NCC)nc(-n2nc(C)cc2C)n1,inactive: -0.774%,
O=C(Nc1ccc(S(=O)(=O)NC2CCCCC2)cc1)c1ccc(Br)o1,inconclusive: 5.82% [signal inhibitor],
[Cu].[NH-][C@H](CC(=O)O)C(=O)O.[NH-][C@H](CC(=O)O)C(=O)O,"inactive: -0.343% [at 11.4 µM, scaled: untreated 0%, proteasome inhibitor 100%]",
O=C(CSc1nnc(Cn2nnc3ccccc32)o1)N(Cc1ccc(F)cc1)c1ccccc1,inconclusive: 5.63% [signal inhibitor],
Cc1c2cnn(-c3ccccc3)c(=O)c2c(C)n1CC(=O)NCCc1ccc(Cl)cc1,inconclusive: 0.912% [signal inhibitor],
COC(=O)C1CCN(C(=O)COC(=O)Cc2c[nH]c3ccccc23)CC1,inconclusive: 16.6% [signal inhibitor],
CCOC(=O)c1[nH]c2ccc(F)cc2c1NC(=O)CN1CCc2cc(OC)c(OC)cc2C1,inconclusive: 3.86% [signal inhibitor],
CC(=O)N1CCc2c(sc3c2c(=O)n(-c2ccccc2)c(=O)n3CC(=O)Nc2ccccc2)C1,inconclusive: 5.99% [signal inhibitor],
COc1cc(CNC(=O)c2ccc3c(c2)N(C)C(=O)C2CCCCN32)cc(OC)c1OC (stereo unspecified),inconclusive: 3.66% [signal inhibitor],
COc1ccccc1-c1nnc(SCC(=O)Nc2ccccc2F)o1,,"inconclusive: 25.1 µM [signal inhibitor, partial curve]"
Cc1nc2sc(C(c3ccco3)N3CCC(Cc4ccccc4)CC3)c(O)n2n1 (stereo unspecified),,"inconclusive: 15.8 µM [signal inhibitor, partial curve]"
CCC1CN(C(=O)N2CCC(C(=O)N3CCN(c4cccc(C)c4C)CC3)CC2)c2ccccc2O1 (stereo unspecified),inconclusive: 2.62% [signal inhibitor],
Cc1ccc2[nH]c(-c3cccc(N)c3)cc2c1,inactive: 1.44%,
Cc1ccc(Cl)cc1NC(=O)CCC(=O)N1CC(C)Sc2ccccc21 (stereo unspecified),inconclusive: 3.28% [signal inhibitor],
Cc1nc(SCC(=O)N2CCN(C(=O)c3ccco3)CC2)c2c(C)c(C)sc2n1,inactive: -0.452%,
COc1cccc(-c2nc(NCc3ccccc3OC)c3ccccc3n2)c1,"inactive: 1.51% [at 11.4 µM, scaled: untreated 0%, proteasome inhibitor 100%]",
CC(=O)N1c2ccc(S(=O)(=O)NCC3CCC(C(=O)Nc4ccc(C)cc4)CC3)cc2CC1C (stereo unspecified),inconclusive: -0.3% [signal inhibitor],
COc1cccc(Cn2c(=O)c(-c3cc(F)cc(F)c3)nc3cnc(N4CCOCC4)nc32)c1,"inactive: -1.8% [at 11.4 µM, scaled: untreated 0%, proteasome inhibitor 100%]",
COc1cccc2cc3c(=O)n(-c4ccccc4)nc-3oc12,,"inconclusive: 0.0794 µM [signal inhibitor, full curve]"
Cc1nc(C)c(C(=O)Nc2nc3c(C)cccc3s2)o1,inconclusive: 13.7% [signal inhibitor],

Compound,IkBa stabilization activation,Potency
COc1cccc2c1OC1(C)CC2NC(=O)N1c1cccc(C(=O)Nc2ccc3c(c2)OCCO3)c1 (stereo unspecified),inconclusive: 6.79% [signal inhibitor],
O=C(NC1CCCCC1)c1ccc(CSc2nc3ccncc3n2Cc2cccc(F)c2)cc1,inconclusive: 4.33% [signal inhibitor],
Cc1cc(-c2cccs2)n[nH]1,inactive: -1.59%,
Cc1ccc2cccc(SCC(=O)N3CCOCC3)c2n1,,"inconclusive: 20 µM [rising, partial curve]"
CSc1ncccc1C(=O)OCC(=O)Nc1cc(C(F)(F)F)ccc1N1CCOCC1,inconclusive: 3.36% [signal inhibitor],
COc1cc(C2Nc3ccc4ncccc4c3C3=C2C(=O)CCC3)ccc1O (stereo unspecified),inconclusive: 5.42% [signal activator],
CCc1nn(CC(=O)N2CCN(c3cccc(C)c3)C(C)C2)c(=O)c2cc3sccc3n12 (stereo unspecified),inconclusive: 13.2% [signal inhibitor],
COc1ccccc1C(=O)NC1(C(F)(F)F)NC(=O)N(CCc2ccccc2)C1=O (stereo unspecified),inconclusive: 5.98% [signal inhibitor],
O=C(CSc1nnc2scc(-c3ccc(Cl)cc3)n12)Nc1ccc(F)cc1,inconclusive: 5.6% [signal inhibitor],
Cc1nn(Cc2ccc(C(=O)NC3CCCCC3)o2)c(C)c1Br,inconclusive: 0.387% [signal inhibitor],
Cc1ccc(Nc2c(-c3cccnc3)nc3ccc(C)cn23)cc1,inconclusive: 16.6% [signal inhibitor],
COc1cccc(C2=CC(c3ccccc3F)n3ncc(C(=O)Nc4ccc(F)cc4)c3N2)c1 (stereo unspecified),inconclusive: 2.96% [signal inhibitor],
COc1ccccc1-c1nc(CNC(=O)NC2CCCCC2)c(C)o1,inactive: 0.563%,
COc1cccc(NC(=O)CSc2cc(C)c3ccccc3n2)c1,inconclusive: 5.71% [signal inhibitor],
COc1ccc(OCC(=O)N2CCN(C(=O)COc3ccc(Br)cc3)CC2)cc1,inconclusive: 7.1% [signal inhibitor],
O=C(Cn1ncc2ccsc2c1=O)N1CCN(c2ccc(Cl)cc2)CC1,inconclusive: 0.105% [signal inhibitor],
COc1ccc(NC(=O)c2c(-c3ccc(C)cc3)nnc3ccccc23)cc1OC,inactive: 1.09%,
Cc1ccc2c(Sc3ccc(Cl)cc3)c(C(=O)N3CCCCC3)[nH]c2c1,inconclusive: 1.49% [signal inhibitor],
C[N+]1([C@H](CO)Cc2c[nH]c3ccccc23)Cc2ccccc2C1,"inactive: 0.414% [at 11.4 µM, scaled: untreated 0%, proteasome inhibitor 100%]",
CC(C)c1ccc(NC(=O)c2cn(C3CCCC3)c(=O)c3c2c2ccccc2n3C)cc1,inactive: 3.07%,
CCCOc1ccc(NC(=O)CC2C(=O)N(c3cccc(OC)c3)C(=O)N2CCc2ccncc2)cc1 (stereo unspecified),inconclusive: -0.368% [signal inhibitor],
Nc1nn(S(=O)(=O)c2cccc3nsnc23)cc1-c1ccc(Br)cc1,inconclusive: 1.31% [signal inhibitor],
